Test results reported in patent publication US20040081647A1 (published 2004).

Biological target: T1, recombinant human TNFα (RDI) (human, UniProt P01375 fragment)
T1 construct: Bought
Experiment: ELISA on plates coated with TNFα at 1 µg/mL, detection with anti-myc-HRP, 1 mM benzamidine

T1 sequence (P01375 77-233 limits assumed): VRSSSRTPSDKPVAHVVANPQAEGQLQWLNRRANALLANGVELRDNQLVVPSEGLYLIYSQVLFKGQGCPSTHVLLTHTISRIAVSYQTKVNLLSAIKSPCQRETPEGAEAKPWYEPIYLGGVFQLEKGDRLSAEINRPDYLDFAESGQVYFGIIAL

B1: Trypsinogen-myc-his (human cationic trypsinogen, enzyme domain alone) (enzyme)
chain: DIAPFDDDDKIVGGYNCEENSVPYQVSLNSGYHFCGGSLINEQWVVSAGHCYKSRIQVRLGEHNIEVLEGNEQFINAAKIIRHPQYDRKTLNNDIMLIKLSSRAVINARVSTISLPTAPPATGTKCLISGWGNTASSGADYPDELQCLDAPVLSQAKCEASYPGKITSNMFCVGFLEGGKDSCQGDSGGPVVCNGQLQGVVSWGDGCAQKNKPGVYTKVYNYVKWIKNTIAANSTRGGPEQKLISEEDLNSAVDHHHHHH
notes: also called tgn
binding result: no binding (tested: conditioned medium diluted 1:10)
